The values below come from ChEMBL document CHEMBL1201862, “PubChem BioAssay data set” (2004).

Molecules are shown by their SMILES.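 A five-concentration, 48-hour dose response in 96-well plates underlies each endpoint, interpolated linearly between surrounding concentrations. Here, GI50 denotes the concentration required for 50% inhibition of growth.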 Active and inactive are the calls of the source. Cut-off read from the data, not from the text of the source: active = GI50 up to about 1.1 µM and inactive = higher.

In the assay the test system is NCI-H322M. The assay is described as follows: DTP human tumour cell line panel, 48 h.
Regarding `Cn1c(=O)cc(NCCc2ccccc2)[nH]c1=O`, the GI50 (as a rule, the concentration that inhibits growth by half) was inactive: 53.1 µM.

As to `O=[N+]([O-])c1ccc(C[S+]([O-])Cc2ccccc2)cc1` (stereo not drawn), the GI50 was inactive: > 100 µM. Consider `CC(C)Cc1ccc(C(C)CC2=CCC(CN(C)C)C2=O)cc1` (stereo not drawn), for which the GI50 is inactive: 17.5 µM. Turning to `Cc1cnoc1/N=C1\C=C(O)C(=O)c2ccccc21`, the GI50 is inactive: 29.9 µM. The value for `O=C(c1ccccc1)c1ccc2n[se]nc2c1` was inactive: 56.1 µM; that for `CC1(C)c2ccccc2C(C)(C)C(C(=O)Nc2ccccc2)C1C(=O)O` (stereo not drawn) was inactive: > 100 µM. Turning to `N#Cc1c(N)nc(Sc2ccccc2N)c(C#N)c1-c1ccc(Cl)cc1`, the GI50 was inactive: 19.3 µM. For the molecule `O=C(Cn1c2c(c3ccccc31)CCCC2)NC1CCCCC1`, the GI50 was inactive: > 100 µM. As for `Cc1cc2ccc(OC(=O)c3ccc(NC(=N)N)cc3)cc2oc1=O`, the figure is inactive: 94.8 µM. The value for `O=C(c1ccccc1)c1c(-c2ccccc2)sc2nc3ccccc3nc12` was inactive: > 100 µM. As for `N#Cc1cc(Sc2ccc(N)c(C#N)c2)ccc1N`, the figure is inactive: 18.1 µM. As for `CN(C)CCNC(=O)c1ccc(C(=O)NCCN(C)C)c2nc3ccccc3cc12`, the GI50 is active: 0.656 µM. The value for `COC1=CC(=O)c2c(cc3c(c2O)-c2c(OC)cc4cc5c(c(O)c4c2OC(=O)CC(C)(O)C3)C(=O)CC(C)(O)C5)C1=O` (stereo not drawn) was inactive: 1.91 µM; that for `COc1c(C)c(C/C=C(\C)CC/C=C(\C)CCC=C(C)C)c(OC)c(OC)c1OC` was inactive: > 100 µM; that for `COc1cc([C@@H]2c3cc(O)c(OC)cc3C=C(C(N)=O)[C@H]2C(N)=O)ccc1O` was inactive: > 100 µM. Take `COc1cc2c(cc1OC)-c1cc(OC)c(OC)cc1[C@H]1CN3CCC[C@@]3(O)C=C21`: the GI50 is active: < 0.0001 µM. As for `CCCC(=O)N(C(=O)CCC)C1=C(Cl)C(=O)c2ccccc2C1=O`, the figure is inactive: 44.6 µM.

As to `NC(=O)c1ncn(Cc2ccccc2)c1CNC(N)=S`, the GI50 was inactive: > 100 µM. As for `COc1ccc(N2C(=O)c3cccnc3S2(=O)=O)cc1`, the figure is inactive: > 100 µM; as for `O=C1CCC[C@H]2O[C@@H](COCc3ccccc3)C[C@@H]12`, inactive: > 100 µM.

As for `COC1=CC(O)(CC(N)=O)c2ccccc2C1=O` (stereo not drawn), the GI50 is inactive: > 100 µM.

In the case of `C=CCC1(CN(C)C)CC/C(=C\c2ccc(Cl)cc2)C1=O` (stereo not drawn), the GI50 was inactive: > 85.3 µM.

Regarding `CCCCC(=O)OC[n+]1ccc(-c2c(COC(=O)NC(C)C)c(COC(=O)NC(C)C)c3n2CCC3)cc1`, the GI50 was inactive: > 100 µM. The value for `COC(=O)C(CC(C)C)NC(=O)NC12CC3CC(CC(F)(C3)C1)C2` (stereo not drawn) was inactive: > 100 µM.

As to `CCOC(=O)CCC(NC(=O)c1ccc(OCc2ccc3nc(OC)c(OC)nc3c2)cc1)C(=O)OCC` (stereo not drawn), the GI50 was inactive: 80.4 µM. Regarding `C[C@@H]1S[C@H](c2ccccc2F)N2Cc3ccccc3N=C12`, the GI50 was inactive: 32.4 µM.

Consider `O=S(=O)(Oc1ccc2ccccc2c1-c1c(OS(=O)(=O)C(F)(F)F)ccc2ccccc12)C(F)(F)F`, for which the GI50 was inactive: > 100 µM. Take `O=c1c(O)c(-c2ccccc2)n(O)c2ccc(Cl)cc12`: the GI50 is inactive: 35.2 µM. The value for `COc1ccc(Cc2nn(C3OC(COC(C)=O)C(OC(C)=O)C(OC(C)=O)C3OC(C)=O)c(=S)n(-c3ccc(OC)cc3)c2=O)cc1` (stereo not drawn) was inactive: > 100 µM. As for `O=C(NC(Cc1ccc(Cl)cc1)C(=O)O)c1ccc(I)cc1` (stereo not drawn), the figure is inactive: > 100 µM. Regarding `CC(=O)NC(C)(C)C1CC=C(C)CC1` (stereo not drawn), the GI50 is inactive: > 100 µM. The value for `C=C(Cl)c1c(OC)cccc1OCc1ccccc1` was inactive: > 100 µM; that for `O=C1CSC(/C(=C\c2ccc(Cl)cc2)c2nc3ccccc3[nH]2)=N1` was inactive: 5.2 µM. The value for `CC(=O)OC[C@@H](OC(C)=O)[C@@H](OC(C)=O)[C@H]1OC[C@@H]2C[C@H]([C@H]1OC(C)=O)N(Cc1ccccc1)O2` was inactive: > 100 µM.

With `O=c1c2cc([N+](=O)[O-])ccc2[nH]n1Cc1ccccn1`, the GI50 is inactive: > 100 µM. The value for `S=C1CC(c2ccccc2)Sc2cc(Cl)ccc2N1` (stereo not drawn) was inactive: 7.05 µM. The value for `CCC1CN2CCC3(c4ccccc4)CC(C(=O)OC)=CC1C23` (stereo not drawn) was inactive: 16.7 µM; that for `C[N+](C)(C)CC1CCCC/C1=N\OC(=O)c1ccccc1` (stereo not drawn) was inactive: > 100 µM. With `Fc1cccc(C2SCC3=Nc4ccccc4CN32)c1` (stereo not drawn), the GI50 was inactive: 39.7 µM. As for `NC1=Nc2ccccc2Sc2nccn21`, the figure is inactive: 35.6 µM; as for `C/N=C(\NC(=S)N(C)C)N(C)C`, inactive: > 100 µM; as for `Clc1cccc(Cl)c1C1ON=C(c2ccccc2)N1C12CC3CC(CC(C3)C1)C2` (stereo not drawn), inactive: > 100 µM. As for `O=C1CNCCCN2CCN(CCCNCC(=O)Nc3ccc(cc3)S(=O)(=O)c3ccc(cc3)NC(=O)CNCCCN3CCN(CCCNCC(=O)Nc4ccc(cc4)S(=O)(=O)c4ccc(cc4)N1)CC3)CC2`, the figure is inactive: 64.7 µM; as for `CCCCN(CCCC)C(=O)C(=O)CC(=O)c1ccc(Br)cc1`, inactive: > 100 µM. Consider `C1=CC=C2NCCSCC/N=C3/C=CC=CC=C3NCCSCC/N=C\2C=C1`, for which the GI50 is inactive: > 100 µM. For `CNC(=O)OCc1nc(N=[N+]=[N-])n(C)c1COC(=O)NC`, the GI50 was inactive: 85.5 µM. As for `Nn1c(Cc2ccc([N+](=O)[O-])cc2)n[nH]c1=O`, the figure is inactive: > 100 µM; as for `CC(C)[Si]1(C(C)C)OCC2OC(n3ccc(=O)[nH]c3=O)C(O)(CO)C2O[Si](C(C)C)(C(C)C)O1` (stereo not drawn), inactive: 17 µM; as for `C/C(Cl)=N/OC(=O)Nc1ccc(F)c([N+](=O)[O-])c1`, inactive: 21.7 µM.

Turning to `Cc1cc2nc(N3C(=O)/C(=C/c4ccc(N(C)C)cc4)N=C3c3ccccc3)sc2cc1C`, the GI50 was inactive: 27.7 µM. Turning to `Oc1cc(N2CCCC2)ccc1/C=N/N1C(=S)N(c2ccccc2)C(=N\c2ccccc2)/C1=N/c1ccccc1`, the GI50 was inactive: > 100 µM.

Take `CC1=NN(c2ccccc2)C(=O)C1C(=O)C(=O)Nc1ccc(C)cc1C` (stereo not drawn): the GI50 is inactive: > 100 µM. The value for `COC(OC)C1OCC(n2cc(F)c(=O)[nH]c2=O)C1O` (stereo not drawn) was inactive: > 100 µM; that for `O=C1c2ccccc2CC1C1(O)C(=O)Nc2ccccc21` (stereo not drawn) was inactive: > 100 µM; that for `CN(C)CCC(C#N)(c1ccccc1)c1ccccc1` was inactive: > 100 µM. The value for `O=C1Nc2ccccc2/C1=C1/Nc2ccccc2/C1=N/OCCOCCO` was active: 0.959 µM; that for `COc1c2c(cc3nc4ccccc4nc13)CC[C@H](NC(C)=O)c1cc(=O)c(SC)ccc1-2` was inactive: 7.76 µM. The value for `O/N=C1/CCCC/C1=C/C=C/c1ccccc1` was inactive: 20.9 µM; that for `O=C1NC2=NN=C(c3ccc(Br)cc3)CN2NC12c1ccccc1-c1ccccc12` was inactive: > 100 µM; that for `CCOC(=O)C(Cc1ccc(N(CCCl)CCCl)cc1)NC(=O)C(Cc1ccccc1)NC=O` (stereo not drawn) was active: 0.34 µM.

As for `COc1cc([C@@H]2c3cc4c(cc3[C@@H](NC(=O)c3ccc(C#N)cc3)C3COC(=O)[C@@H]32)OCO4)cc(OC)c1O` (stereo partly drawn), the GI50 was inactive: 2.72 µM. As for `O=C(C/C(CCC(=O)N(Cc1ccccc1)Cc1ccccc1)=N/Nc1ccc([N+](=O)[O-])cc1[N+](=O)[O-])c1ccccc1`, the figure is inactive: > 100 µM; as for `O=C(c1cccnc1)N1N=C(c2ccc3c(c2)OCO3)CC1(O)c1cc(F)c(Cl)cc1Cl` (stereo not drawn), inactive: 21.7 µM; as for `COc1cc(C(=O)C2C(=O)c3ccccc3C2C2(O)c3ccccc3CC2C(O)c2cc(OC)c(OC)c(OC)c2)cc(OC)c1OC` (stereo not drawn), inactive: > 100 µM.

Take `CN1CCN(c2ccc3nc(C4=C(O)C(=O)[C@@H]5C(=C4O)N=C(CO)N5C)[nH]c3n2)CC1`: the GI50 was inactive: 33 µM. The value for `CC[C@H](C)N(CCN)C(=O)c1cc2ccccc2c(-c2ccccc2Cl)n1` was inactive: 13.5 µM; that for `NNC(=O)/C(=C/c1ccc(Cl)c(Cl)c1)NC(=O)c1ccccc1` was inactive: > 100 µM.

In the case of `O=C1Nc2c(Cl)cc(Cl)cc2/C1=N/N=C/c1ccco1`, the GI50 was inactive: 55 µM. For the molecule `Nc1nonc1-c1noc(-c2nonc2N)[n+]1[O-]`, the GI50 is inactive: > 100 µM.

In the case of `CCN(CC)c1c(-c2c(OC(C)C)c(=O)c2=O)c(=O)n2ccsc2c1OC(C)=O`, the GI50 was inactive: > 100 µM. As for `C#CC[N+](C)(CC#C)CC#C`, the figure is inactive: > 100 µM.

As to `COc1cc2c(c(OC)c1OC)C(=O)[C@@H]1[C@H]2N1C(N)=O`, the GI50 was inactive: 89.3 µM.

For `C#Cc1cccc(N2C(=O)CCC2=O)c1`, the GI50 is inactive: 18.8 µM. The value for `O=C1Oc2cc3c(c4cccc1c24)OCN(c1ccc(Cl)cc1)C3` was inactive: > 67 µM; that for `COc1ccc(OCC(=O)O)c2c1CCC(C(C)C)C2=O` (stereo not drawn) was inactive: > 100 µM. Regarding `c1ccc(/N=C2\c3ccccc3CN2c2ccccc2)cc1`, the GI50 is inactive: > 100 µM. The value for `CCNc1cc2oc(=O)cc(C(F)(F)F)c2cc1C` was inactive: > 100 µM. As for `CC(c1ccccc1)C(O)S(=O)(=O)O` (stereo not drawn), the figure is inactive: > 100 µM; as for `C[Si](C)(OCCS(=O)(=O)O)C1(Cc2cccc3ccccc23)S(=O)(=O)OCCOS1(=O)=O`, inactive: 21 µM; as for `O/N=N\c1nc(-c2cccnc2)nc2ccccc12`, inactive: > 100 µM.

For the molecule `C[C@@H](NC1CCC[C@@H]1O)c1ccccc1` (stereo partly drawn), the GI50 was inactive: > 100 µM. The value for `CN(C)CCCNc1ccc2nnn3c4ccc([N+](=O)[O-])cc4c(=O)c1c23` was active: 1.06 µM; that for `CN(C)CCC1(C2=CCCC2)CC/C(=C\c2ccc3c(c2)OCO3)C1=O` (stereo not drawn) was inactive: 15.8 µM.
